# In ChEMBL document CHEMBL4888484, “Replenishing the malaria drug discovery pipeline: Screening and hit evaluation of the MMV Hit Generation Library 1 (HGL1) against asexual blood stage Plasmodium falciparum ,using a nano luciferase reporter read-out” (2022):
# Screen size: about 150,000 compounds; about 540 (0.36%) showed an effect of 50% or more. The list shows a part of the results.
# Test system: Plasmodium falciparum
# Experiment: Primary screen in NF54 nanoGlo assay, in single point, at 2uM, 72h; a lower Z score goes with more inhibition
# Assay type: functional, Erythrocyte
# Settings: timepoint 72 hour
Compound,% Inhibition,Z score
CCC(C)N(CC(=O)N1CCc2sccc2C1COc1ccc(Cl)cc1)C(=O)c1cccc(OC)c1 (stereo not drawn),-5%,0.53
COc1ccc2[nH]c(CN[C@@H](C)Cn3nc(C)cc3C)cc2c1,-3%,0.52
O=C1CC[C@H](N2CCN(Cc3ccc4c(c3)OCO4)CC2)CCN1Cc1ccc(F)c(F)c1,-3%,0.35
CCn1nc(C)cc1C(=O)Nc1cccc(-c2nnnn2CC)c1,-12%,1.39
CCc1nccn1CCN(C)Cc1noc(C(C)C)n1,-14%,2.13
Cc1ccc(C)c(N2CCN(S(=O)(=O)c3c(C)sc(C)c3-c3[nH]nc(C)c3C)CC2)c1,3%,-0.35
CN(C)c1ncccc1N(C)C(=O)Cc1ccon1,-3%,0.59
O=C(NC[C@H]1CCCN1c1nccs1)c1ccccc1,-12%,2.25
CC(C)c1noc([C@H](C)NS(=O)(=O)N2CCOCC2)n1,2%,-0.37
CS(=O)(=O)N1CCO[C@@H](Cn2ccnc2-c2cc(C#CCO)cs2)C1,-9%,1.07
Cc1ccc(C(=O)n2cnc(N)n2)cc1,-5%,0.95
CCOC(=O)CC1(N(C)C(=O)c2cc(C)on2)CCCCC1,-10%,1.31
O=C(C1CCC(C2CC2)N1)N1CCC2(CCc3ccccc3C2=O)CC1 (stereo not drawn),1%,-0.19
CC1CN(C(=O)c2cn(C)nn2)CC(c2ccsc2)O1 (stereo not drawn),5%,-0.61
Cc1cc(C(=O)N2CCn3c(nnc3C(F)F)C2)nn1C(C)C,5%,-0.92
CCOC(=O)CCc1c(C)nn(-c2nc(C)cc(C)n2)c1O,4%,-0.6
Cc1nccn1[C@@H](C)C(=O)NCCc1nccn1C,-11%,1.76
COc1ccccc1NS(=O)(=O)c1cc(-c2nnc(C(=O)N3CCCC3)o2)sc1C,5%,-0.62
Cc1nsc(NC2CC2)c1C(=O)N1CCN(c2c(F)cccc2F)CC1,-4%,0.69
CC1CC(NC(=O)N[C@@H]2CCCc3c(F)cc(F)cc32)c2nccn21 (stereo partly drawn),-8%,1.42
COc1ccc(Cl)cc1-c1cccc(-n2cncc2C(=O)NC2CC(C)CC(C)(C)C2)c1 (stereo not drawn),5%,-0.43

Compound,% Inhibition,Z score
COc1cc(NC(=O)Cc2ccn[nH]2)cc(OC)c1Br,-11%,1.82
COCc1noc(-c2cccc(OCC(F)F)n2)n1,-6%,0.51
Cc1ccc(NC(=O)N[C@@H](CC(=O)c2ccc(Cl)cc2Cl)C(Cl)(Cl)Cl)cc1,6%,-0.74
CCN(CC)S(=O)(=O)c1ccc2c(c1)cc(C(=O)N1CCN(C3CCCCC3)CC1)n2C,-7%,1.04
C[C@H]1CCOCCN1C(=O)c1ccc(-c2cn[nH]c2)cn1,-6%,1.01
CCc1nc2cc(CNC(=O)C3CCOCC3)ccc2n1C1CC1,1%,-0.15
COc1ccc(Cl)c(NC(=O)[C@@H]2CC(=O)Nc3c(-c4ccccc4OC)cnn32)c1,-8%,1
CN(C)[C@H]1CCN(C(=O)c2cccc(-c3ccc4cc[nH]c4c3)c2)C[C@@H]1O,16%,-2.06
O=C(COc1ccc2ccccc2c1)Nc1ccc(Nc2ccccc2)cc1,7%,-1.26
COCc1cc(CNC(=O)[C@H]2CCc3ccccc3C2)n[nH]1,-10%,1.08
Cc1nnc(CNC(=O)c2cc(=O)[nH]c3cc(F)ccc23)o1,-7%,0.92
CCS(=O)(=O)N1C[C@@H]2CN(C(=O)c3ccccc3)C[C@]2(C(=O)N(C)C)C1,-2%,0.46
Cn1nccc1C(=O)N1CCN(Cc2cccc(C#N)c2)C[C@H](O)C1,-9%,1.56
FC(F)COc1ccc(-c2nc([C@H]3CCOC3)no2)cn1,-4%,0.53
Cc1cnc(C(NC(C)c2nnnn2C2CC2)C2CC2)s1 (stereo not drawn),-15%,2.41
O=C(CCNC(=O)N[C@@H]1C=CCCC1)Nc1ccccc1,-8%,0.98
CCNC(=O)N[C@@H]1C=C[C@@H](c2c(C)nn(-c3ccc(C(C)(C)C)cc3)c2C)C1,-4%,0.61
COc1c(F)c(F)cc(C(=O)NCc2cncc(-c3ccnn3C)c2)c1F,12%,-1.52
CCC[C@H](NC(C)=O)C(=O)NCCc1nc2ccccc2o1,-13%,2.2
Cc1ccc(NC[C@H]2CCN(Cc3nc(C4CC4)no3)C2)nc1,2%,-0.19
COCCN1CCCCC[C@H](O)c2cc(C(=O)N3CCc4ccccc43)ccc21,-19%,2.17

Compound,% Inhibition,Z score
CN(C[C@H]1COCCO1)C(=O)NCc1nc(C(C)(C)C)no1,-8%,1.6
Cc1ccc(-c2nc3c([nH]2)CCNC3)c2cccnc12,4%,-0.81
c1ccc2[nH]c(-c3nc4ccccc4o3)nc2c1,-4%,0.56
COc1ccccc1N1CCN(C(=O)Cn2ncn3nc(-c4cccc5ccccc45)cc3c2=O)CC1,-6%,0.72
CC1=CCCC(C)C1CNC(C)CCS(C)(=O)=O (stereo not drawn),-6%,0.63
CC[C@H](Oc1ccccc1C)c1nnc(C2CCC2)o1,9%,-1.68
CCN(CC(=O)Nc1ccc(NC(C)=O)cc1)C(=O)c1ccoc1,1%,-0.28
CCOc1ncccc1C(=O)N1CCO[C@H](c2ccccc2)CC1,-3%,0.56
C=CCN(Cc1ccc(F)cc1)C(=O)[C@@H]1COc2c(cccc2OC)C1,-8%,1.43
CCC[C@H](C)c1nc(N2CCCN(C(=O)Cc3ccccc3)CC2)c2c(C)nn(-c3ccc(F)cc3)c2n1,-2%,0.45
CCC(CNC(=O)N1CCS(=O)(=O)CC(C)C1)Oc1ccccc1C (stereo not drawn),8%,-1.45
Cc1c([C@@H](NC(=O)Cn2cnnn2)C(C)C)oc2ccccc12,-3%,0.53
CCc1ccc(CN2CCN(Cc3cccc(Oc4ccccc4)c3)CC2)cc1,31%,-0.25
COCCOc1nc(-c2ccccc2C)n(-c2ccc(NC(=O)c3cccs3)cc2)n1,-19%,3.27
CCn1ccc(C(=O)N2CC[C@H](c3nc(C)no3)[C@H](NC(=O)COC)C2)n1,-13%,1.68
Nc1cc(C(=O)N2CCOCC2)ccc1N1CCCCC1,-2%,0.19
Cc1cc(C(=O)NCCc2csc(C)n2)no1,-8%,1.54
CCc1nc(NCCOC)c2cc(Cl)cc(Cl)c2n1,-7%,0.68
CCOCCCNC(=O)c1snc2c(=O)n(Cc3ccccc3)cnc12,-13%,1.96
O=C(NCC(F)(F)C(F)F)c1cccc2c1CCCN2,-12%,1.16
Cc1ccc(CN(C)C(=O)c2ccn(C)c2C)o1,1%,-0.1

Compound,% Inhibition,Z score
COc1ccc(C(=O)N2CCC3(CC2)C[C@@H](N2CCOCC2)CCO3)cc1,-14%,1.85
CCc1ccccc1NC(=O)Cn1nc2ccc(C(=O)NCc3ccccc3)cn2c1=O,-7%,1.15
CC(NCC1COc2ccccc2O1)c1cccnc1 (stereo not drawn),-12%,1.33
O=C(c1ccccc1O)N1CCC2(CC1)c1nc[nH]c1CCN2C(=O)C1CCC1,-4%,0.34
CC(Oc1ccccc1Br)C(=O)N1CC2OCCN(C)C2C1 (stereo not drawn),-7%,1.16
CCOc1nnc(CN2CCC[C@H]2c2cnn(C)c2)s1,-1%,0.21
CCOC(=O)c1c(CN(C)C)n(-c2ccc(OC)cc2)c2ccc(Oc3nccc(Nc4ccccc4)c3C#N)cc12,-2%,0.42
O=C(c1ccccc1-c1nnn[nH]1)N1CCN(C/C=C/c2ccccc2)CC1,8%,-1.37
Cc1ccc2cc(CNCc3cccc(Cl)c3)c(N3CCC(O)CC3)nc2c1,-6%,1
Cc1noc(C)c1CC(=O)Nc1sccc1C#N,-16%,2.11
O=C1C[C@H](c2cccnc2)c2c(n(C3CCCCC3)[nH]c2=O)N1,-4%,0.52
Cn1c(C(=O)N2CCN(c3ccccc3)CC2)cc2occc21,-4%,0.6
Cc1cscc1C(=O)N1CCCS1(=O)=O,-4%,0.38
CCOC(=O)c1c(C)c(CCC(=O)NCc2ccccc2)n(C)c1C,7%,-1.37
C[C@H]1COCCN1S(=O)(=O)c1ccc2c(c1)CCO2,-11%,0.96
Cc1cc(N(C)CC2CCN(CCO)CC2)nc(-c2ccccc2)n1,-12%,1.73
CC1(C)COCCC[C@H]2CN(C(=O)Nc3cccc(F)c3)CC[C@H]2CC(=O)N(CC2CCC(F)(F)CC2)C[C@@H]1O,32%,-3.64
CCS(=O)(=O)N1CCC[C@H](c2nnc(-c3cccs3)o2)C1,-9%,1.67
Cc1cc(O)n2nc(CC(=O)NCCCc3scnc3C)nc2n1,-14%,2.05
CC(C)c1nccn1CCNc1ncc(Br)cn1,1%,-0.16
CCOc1ncccc1C(=O)N1CCNC(=O)C1,4%,-0.56
